# Laboratory results as given in PMC4336329 (PLoS ONE, 2015).
# The campaign covered roughly 310,000 compounds. About 2,200 (0.71%) showed an effect of 50% or more. The effect is printed as a negative number. This is one part of the list.
# Target: human ether-à-go-go-related gene (hERG) potassium channel (human, UniProt Q12809)
# Assay: primary screen, population patch clamp on CHO cells stably expressing hERG
# Chain of human ether-à-go-go-related gene (hERG) potassium channel (Q12809 whole entry, looked up): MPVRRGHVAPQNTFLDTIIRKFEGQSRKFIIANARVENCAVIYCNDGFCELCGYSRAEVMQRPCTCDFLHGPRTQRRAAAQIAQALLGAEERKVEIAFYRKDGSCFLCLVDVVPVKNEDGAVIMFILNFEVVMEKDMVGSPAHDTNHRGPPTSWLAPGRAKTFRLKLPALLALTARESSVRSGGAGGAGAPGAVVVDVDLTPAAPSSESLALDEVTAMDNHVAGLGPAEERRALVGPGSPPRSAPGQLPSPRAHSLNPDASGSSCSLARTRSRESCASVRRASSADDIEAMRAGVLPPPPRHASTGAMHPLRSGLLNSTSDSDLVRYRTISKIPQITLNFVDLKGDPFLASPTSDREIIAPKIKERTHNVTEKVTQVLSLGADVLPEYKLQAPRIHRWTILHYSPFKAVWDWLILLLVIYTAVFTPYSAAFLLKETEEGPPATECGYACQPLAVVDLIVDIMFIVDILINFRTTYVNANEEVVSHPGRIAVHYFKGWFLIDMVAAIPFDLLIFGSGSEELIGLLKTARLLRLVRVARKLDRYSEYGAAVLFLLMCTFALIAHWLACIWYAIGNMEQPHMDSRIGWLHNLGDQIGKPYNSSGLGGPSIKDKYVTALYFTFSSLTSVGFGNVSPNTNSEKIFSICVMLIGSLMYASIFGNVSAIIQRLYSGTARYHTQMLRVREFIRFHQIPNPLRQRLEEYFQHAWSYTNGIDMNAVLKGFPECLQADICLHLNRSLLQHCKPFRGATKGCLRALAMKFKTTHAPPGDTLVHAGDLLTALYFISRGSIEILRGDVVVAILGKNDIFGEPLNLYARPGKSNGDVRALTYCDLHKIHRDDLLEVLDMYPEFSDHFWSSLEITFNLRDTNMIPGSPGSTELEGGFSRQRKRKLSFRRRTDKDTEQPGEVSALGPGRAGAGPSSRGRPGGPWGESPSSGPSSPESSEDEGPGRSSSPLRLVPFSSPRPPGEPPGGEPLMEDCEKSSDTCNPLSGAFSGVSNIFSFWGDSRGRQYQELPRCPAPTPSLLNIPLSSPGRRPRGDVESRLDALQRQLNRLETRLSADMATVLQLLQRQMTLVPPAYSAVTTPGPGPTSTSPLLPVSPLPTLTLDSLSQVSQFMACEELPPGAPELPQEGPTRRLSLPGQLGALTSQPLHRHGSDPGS
row,Compound,"hERG current change (%, negative = inhibition) at 1uM [%]"
1,NC(=O)NNC1=Nc2cccc3cccc1c23,3.23
2,Cn1c(Cn2cnc3ccccc32)nc2ccccc21,12.4
3,COC(=O)C1CCN(S(C)(=O)=O)CC1,1.7
4,COc1ccc(NC(=O)C2CCC(C)(C(=O)O)C2(C)C)cc1 (stereo not shown),11.1
5,Cc1onc(-c2ccccc2Cl)c1C(=O)NCCCN1CCOCC1,12.9
6,C[C@@H]1CN(C(=O)c2nc3ccc(Cl)cn3c2CN(C)CCc2cnn(C)c2)C[C@H](C)O1,12.3
7,O=C(Nc1ccc2ccccc2c1)N1CCN(c2ncccc2C(F)(F)F)CC1,-1.48
8,CCOc1ccccc1Nc1nc2ccccc2[nH]1,10.5
9,CN1CCC(=O)N([C@H](CN=[N+]=[N-])Cc2ccccc2)CC1,13.9
10,CCOc1cc(NC(=S)NCC2CCCO2)c(OCC)cc1NC(=O)c1ccccc1F (stereo not shown),8.15
11,CC1(C)C(=O)C2(CCCC2)C(=O)OC1c1ccco1 (stereo not shown),-7.59
12,Cc1ncc(CN2CCCC(C(=O)Nc3ccc(-c4cscn4)cc3)C2)cn1 (stereo not shown),1.21
13,N#Cc1ccc(NC(=O)CN2C(=O)NC3(CCCC3)C2=O)cc1,3.38
14,CCN(CC)C(=O)CP(=O)(c1ccccc1)c1ccccc1,12.2
15,O=C(Nc1cccc2ccccc12)N(CCO)C1CCS(=O)(=O)C1 (stereo not shown),15.7
16,C=C(C)[C@@H]1CC[C@]2(C(=O)O)CC[C@]3(C)C(CCC4[C@@]5(C)CC[C@H](O)C(C)(C)C5CC[C@]43C)C12 (stereo partly shown),5.29
17,Cc1ccccc1CC1(CO)CCCN(Cc2ccc(C#CC(C)(C)O)cc2)C1 (stereo not shown),6.78
18,O=C(CCCN1C(=O)/C(=C\c2cccs2)SC1=S)NNC(=O)c1cccnc1,17.5
19,CCOc1ccc2c(c1)C(c1ccc(C)o1)=NNC(c1ccncc1)=N2,13.8
20,CC(=O)O.O=C(O)c1ccc(-c2nc(-c3ccccc3)c(-c3ccccc3)[nH]2)cc1,7.3
21,COCCNC(=O)c1ccc2snnc2c1,9.44
22,CCC(C(=O)NC1CCCCCC1)n1nc(C)c2c(C)n(-c3ccccc3)nc2c1=O (stereo not shown),-3.48

row,Compound,"hERG current change (%, negative = inhibition) at 1uM [%]"
1,O=C(NNc1ccccc1[N+](=O)[O-])NC1CCCCC1,13.6
2,Cn1cccc1C(=O)C(=O)Nc1ccccc1,8.22
3,CCOC(=O)N1CCN(c2ccc(O)cc2)CC1,9.98
4,Cc1ccc(C)c(NC(=S)N2CCCC2)c1,11
5,CSc1ncccc1C(=O)OCC(=O)N(CC(C)C)C1CCS(=O)(=O)C1 (stereo not shown),4.63
6,Cn1c(=O)c2c3c(sc2n2cnnc12)CCC3,6.74
7,Cc1ccc(-c2nnc(CSc3nncn3N)o2)cc1,13.7
8,COc1ccc(S(=O)(=O)N2CCOC23CCN(C(=O)c2ccccc2Br)CC3)cc1,12.6
9,C[C@H](C(O)c1ccccc1)N(C)C(=O)CN (stereo partly shown),3.45
10,CCOC(=O)c1sc(N=Nc2c(O)[nH]c(=O)[nH]c2=O)c(C(=O)OCC)c1C,15.2
11,CCN(CC)C(=O)CSc1nc2cc3c(cc2c(=O)n1CCCC(=O)NCc1ccc(OC)cc1)OCO3,11.6
12,COc1ccc(S(=O)(=O)Nc2c3ccccc3nc(=O)n2-c2ccccc2)cc1,10.3
13,O=C(Nc1nnc(-c2cccnc2)s1)c1cccs1,10.3
14,CCCc1cc(=O)[nH]c2nnc(SCC(=O)NC3CCCCC3)n12,0.286
15,Cc1nn(C(=O)N2CCCCC2)c(C)c1CN1C(=O)c2ccccc2C1=O,16.9
16,Cn1nc(C(F)(F)F)c(-c2ccc(F)cc2)c1NC(=O)c1ccco1,3.91
17,CCOC(=O)c1ccc(S(=O)(=O)N2CCN(C(=O)c3nn(C)c(=O)c4ccccc34)CC2)cc1,-18.2
18,COc1ccc(-c2n[nH]c(C(F)(F)F)c2-c2cc3ccccc3o2)c(O)c1,7.94
19,CCOC(=O)c1c(C)c(C(=O)N2CCCCCC2)c(C)n1C,7.19
20,N#CC(c1ccccc1)(c1ncc(C(F)(F)F)cc1Cl)N1CCOCC1 (stereo not shown),7.36
21,CCc1c(C)sc(NC(=O)C2CC2)c1C(=O)OC(C)C,8.86
22,CCc1ccc[n+](-c2[nH]c(=O)sc2/C=N/N=C(\[O-])c2cccnc2)c1,12.9

row,Compound,"hERG current change (%, negative = inhibition) at 1uM [%]"
1,COc1ccc(CCN2C(=O)c3[nH]nc(-c4ccccc4O)c3C2c2cccc(O)c2)cc1OC (stereo not shown),-3.23
2,Cc1ccc(Cl)cc1NC(=O)c1cc2ccccc2cc1O,3.42
3,CCN(CC)c1ccc(C2Nc3cccc4cccc(c34)N2)c(O)c1,19.6
4,Cn1c(=O)cc(OCC(=O)N2CCN(C3CCCCC3)CC2)c2ccccc21,-2.06
5,CC1(OC(=O)CCc2ccccc2)C(=O)C=C2C=C(c3ccc(C#N)cc3)N(Cc3ccccc3)C=C2C1=O (stereo not shown),8.3
6,Cn1ccsc1=NC(=O)c1ccc(OC(F)(F)F)cc1,8.43
7,Cc1ccc(S(=O)(=O)N(C)Cc2ccc(C(=O)N/N=C3\CCCC(=O)C3)cc2)cc1,11.1
8,O=S(=O)(Nc1nc2ccccc2nc1N1CCc2ccccc2C1)c1ccc(Cl)cc1,9.53
9,CCc1nnc(NS(=O)(=O)c2ccc(NC(=O)c3ccc(C#N)cc3)cc2)s1,17.1
10,CCOC(=O)N1CCC(NC(=O)C2CCN(C(=O)N3CCOc4ccccc43)CC2)CC1,10
11,COc1ccccc1C(=O)C1CCCN(Cc2cnc(C)s2)C1 (stereo not shown),3.84
12,Fc1ccc(/C=N/n2c(C3CCCCC3)n[nH]c2=S)cc1,22.5
13,Cc1cccc(C)c1NC(=O)C1(NC(=O)C2CCC(=O)N2)CCCCC1 (stereo not shown),10.7
14,CC1CC(C)CN(c2ncc3c(n2)CC(c2ccc(Cl)cc2)CC3=O)C1 (stereo not shown),9.06
15,Cn1cc(C(=O)N2CCCCCC2)c(=O)c2cc(S(=O)(=O)N3CCCCC3)ccc21,13.4
16,O=S1(=O)C=C(Oc2ccc3ccccc3c2)c2ccccc21,10.6
17,Cn1c(=O)[nH]c(=O)c2c1nc(N1CCCC1)n2CCCSc1nnnn1-c1ccccc1,-5.96
18,Cc1cc(NC(=O)c2ccc3[nH]c(C)c(C)c3c2)ccn1,9.8
19,COc1ccc(C(=O)NCc2ccccc2OC)cc1,3
20,CCOC(=O)c1ccc(NC(=O)CSc2nnc(CNC(=O)c3ccco3)o2)cc1,25
21,CCN(CC)C(=O)Sc1cccc2cccnc12,14.3
22,CC1(C)CC(CCNS(=O)(=O)c2ccccc2)(c2ccccc2)CCO1 (stereo not shown),14.4

row,Compound,"hERG current change (%, negative = inhibition) at 1uM [%]"
1,CCCC(=O)Nc1ccc(C(=O)COC(=O)C2CC2C)cc1 (stereo not shown),12.1
2,Cc1cccc2sc(NC(=O)C3CC3)nc12,12.4
3,COC(=O)c1ccccc1NC(=O)C1CCN(S(=O)(=O)c2cc(OC)ccc2OC)CC1,3.62
4,Cc1cccc(-c2nc(CS(=O)CC(=O)NCC3CCCO3)c(C)o2)c1 (stereo not shown),0.84
5,COCCOC(=O)C1=C(C)OC(N)=C(C#N)C1c1ccc2c(c1)OCO2 (stereo not shown),-2.99
6,CC(C)n1c(SCC(=O)Nc2nncs2)nnc1-c1ccco1,-12.1
7,NS(=O)(=O)c1ccc(CCNC(=O)CCCNC(=O)c2ccc(Cl)cc2)cc1,17.4
8,O=C(CCS(=O)(=O)c1cccs1)Nc1ccc(C(=O)NC2CCCC2)cc1,14.6
9,CCOc1ccc(CNC(=O)C2Cc3cc(S(=O)(=O)N4CCCC4)ccc3N2C(C)=O)cc1 (stereo not shown),1.72
10,O=S(=O)(Cc1ccc(Cl)cc1)CC(O)COCc1ccccc1 (stereo not shown),11.5
11,COc1ccc(C)cc1NC(=O)C1CCN(S(=O)(=O)c2cccc3nonc23)CC1,14.2
12,CCCCCn1c(=O)[nH]c2cc(C(=O)N3CCN(C(=O)OCC)CC3)ccc2c1=O,10.9
13,Cc1ccc(C(C(=O)Nc2ccc3c(c2)OCO3)N(C)C(=O)Cc2c[nH]c3ccccc23)cc1 (stereo not shown),14
14,COc1cc(C)ccc1OCc1cc(C(=O)N(Cc2c(C)nn(C)c2C)C2CC2)no1,2.87
15,COc1cc(NC(=O)c2cccc(C)c2)ccc1NC(=O)c1cc2ccccc2o1,-2.99
16,COc1ccc(-c2nnc(SCC(=O)NCc3ccco3)n2C)cc1,9.66
17,COc1ccc2[nH]c(=O)c(CN(c3ccccc3OC)S(=O)(=O)c3ccccc3)cc2c1,7.5
18,Cc1ccc(S(=O)(=O)c2nc(-c3ccco3)oc2NCC2CCCO2)cc1 (stereo not shown),6.32
19,CCN1CCCC1CNC(=O)c1cc(S(=O)(=O)CC)c(N)cc1OC (stereo not shown),0.395
20,Cc1onc(-c2c(Cl)cccc2Cl)c1C(=O)N1CCc2ccccc21,-0.407
21,O=C1NCCN(Cc2ccc(F)cc2)C1CC(=O)N1CC=C(c2ccccc2)CC1 (stereo not shown),14.1
22,Nc1nccnc1C(=O)OCC(=O)NC1CCCc2ccccc21 (stereo not shown),13.2
